We go through 87 compounds from PubChem BioAssay (NCI).

Values joined by “and” are separate entries in the source; they are usually repeats but may differ in a detail not shown here. Equal entries are not always repeated.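 The compound was tested at five concentrations on cells cultured in 96-well plates, with a 48-hour exposure period. Here, GI50 denotes the concentration required for 50% inhibition of growth. TGI: concentration producing complete growth inhibition.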

The subject of the assay is NCI-H322M lung. Briefly: NCI tumour cell line growth inhibition, 48 h.
Consider `COc1ccc(Nc2ncccc2C(=O)NCc2cn(Cc3cccc(Oc4ccccc4)c3)nn2)c(OC)c1`, for which the GI50 is above 30.5 µM and the TGI was above 100 µM. For `NC(CSC1(c2ccc(Cl)cc2)c2ccccc2-c2ccccc21)C(=O)O` (configuration not stated), the TGI was above 100 µM. With `O=c1[nH]c(-c2ccc([N+](=O)[O-])cc2)nc2ccc(Cl)cc12`, the TGI was above 100 µM. Compound `CCC1OC(=O)CC(O)C(C)C(OC2OC(C)CC(N(C)C)C2O)C(CC=O)CC(C)C(=O)/C=C/C2(C)OC2C1C` (configuration not stated) returned a TGI above 100 µM. Still for that read-out and setting: in the case of `Cc1ccc(S(=O)(=O)NCCCSCCO)cc1` it was above 100 µM. For the compound `CN1CCN(Cn2nc(-c3cc(F)c(Cl)cc3Cl)oc2=S)CC1`, the GI50 was 36.9 µM and the TGI is above 100 µM. For the compound `C[C@]12CCC(=O)C=C1CC[C@@H]1C2CC[C@@]2(C)C1CC[C@@H]2OC(=O)C12OC1CCC2=O` (some centres not stated), the TGI came to 82.7 µM.

Consider `COc1ccc(/C=C/C(=O)c2ccccc2)cc1OC`, for which the GI50 was 18.9 µM; the TGI is 27.4 µM and 37.2 µM. Compound `COc1c(C)c(C/C=C(\C)CCCCO)c(OC)c2ccccc12` displayed a TGI above 100 µM. On to `C1=CC(=NN=P(c2ccccc2)(c2ccccc2)c2ccccc2)C=C1`, for which the TGI was above 100 µM. Take `CCN(CCN(CC)C(=O)NC)C(=O)NC`: the TGI was above 100 µM. On the same count and under the same terms, in the case of `COC(=O)C1CCCN1C(=O)OC(C)(C)C` (configuration not stated) it was above 100 µM; in that of `O=C1C(=Cc2ccc([N+](=O)[O-])o2)C(=O)N(CCc2ccccc2)S(=O)(=O)N1CCc1ccccc1`, above 100 µM. The same measure, in the same setting: in the case of `COc1cc2c(cc1OC)-c1[nH]c3ccc([N+](=O)[O-])cc3c1CC(=O)N2` it was above 100 µM. Consider `Oc1[nH]c2ccccc2c1/C=c1/ccc2c(c1)N=C(c1cc(F)cc(F)c1)N=2`, for which the GI50 was 11 µM and the TGI was 34.9 µM. For `Cc1cc2c(C)nn(Cc3ccccc3Cl)c2c(C#N)c1C`, the TGI is above 100 µM. Same read-out and setting: the value for `COC(=O)C1Cc2c([nH]c3ccccc23)-c2[nH]c3ccccc3c2CC(NC(C)=O)C(=O)N2CCCC2C(=O)N1` (configuration not stated) was above 100 µM. Compound `Cc1cc2nc(CC(C(F)(F)F)C(F)(F)F)oc2cc1C` registered a TGI of 10.1 µM.

In turn, `COc1cc(/C=C/C2=NN(c3cccc(S(=O)(=O)O)c3)C3(C2)SCC(=O)N3c2nc3ccccc3s2)cc(OC)c1OC` (configuration not stated) returned a TGI above 100 µM. For the compound `O=C(NC(Cc1ccccc1)C(=O)CCl)OCc1ccccc1` (configuration not stated), the GI50 is 15.4 µM; the TGI is 30.6 µM and 32.3 µM. Regarding `COc1ccc(NC(=O)C2=CC(=O)c3ccc(O)cc3C2=O)c(OC)c1`, the TGI is above 100 µM. The same measure, in the same setting: in the case of `CN(C)CCOc1ccc2[nH]c(C(=O)N3CC(CCl)c4ccc(N)cc43)cc2c1` (configuration not stated) it was 3.62 µM; in that of `CCOC(=O)C(NC(=O)c1ccccc1)(Nc1ccc(S(=O)(=O)Nc2ccc(OC)nn2)cc1)C(F)(F)F` (configuration not stated), above 100 µM; in that of `Cc1nc(-n2nc(-c3ccccc3)cc2-c2ccccc2)sc1C(/C=C/c1ccc([N+](=O)[O-])cc1)=N/NC(N)=S`, above 100 µM.

In the case of `COC1C(C)OC(OC2CC(C)(O)Cc3cc4c(c(O)c32)C(=O)c2c(O)cc3c(c2C4=O)OC2OC3(C)C(O)C(N(C)C)C2O)C(OC)C1(C)OC` (configuration not stated), the TGI is 1.43 µM and 0.317 µM. For the compound `O=[P+](O)c1cccnc1`, the TGI is above 100 µM. `COc1cc(C(=O)N(C(=O)N2CCCCC2)c2ccccc2)cc(OC)c1OC` came in with a TGI above 100 µM. In the case of `COc1cc(CC2C(=O)OCC2[C@@H](OC(C)=O)c2ccc3c(c2)OCO3)c(Br)c(OC)c1OC` (some centres not stated), the TGI is above 100 µM.

The compound `Nc1ccn(CCCC(c2ccccc2)P(=O)(O)O)c(=O)n1` (configuration not stated) came in with a TGI above 100 µM. For `NC(CS)C(=O)NCCNc1ccc(NCCNC(=O)C(N)CS)c2c1C(=O)c1c(O)ccc(O)c1C2=O` (configuration not stated), the GI50 is 0.119 µM; the TGI was 1.3 µM and 0.676 µM. Regarding `CN1C(=O)[C@@H]2[C@@H]3c4ccccc4N[C@@H]3c3[nH]c4ccccc4c3[C@@H]2C1=O`, the TGI was above 100 µM. The same measure, in the same setting: in the case of `CSCC(COC(C)=O)(CSC)c1ccncc1` it was above 100 µM. The same measure, in the same setting: in the case of `CC(=O)N1CCN(CCCCN2c3ccccc3Sc3cc(N=[N+]=[N-])ccc32)CC1` it was 31.4 µM. Regarding `Cc1nc2cc(Nc3nc(Nc4ccc(F)cc4)nc(N4CCCC4)n3)ccc2n1Cc1ccccc1`, the GI50 is 2.11 µM and the TGI came out at 4.52 µM. In turn, `COc1cc(CC(=O)c2cc3c(cc2-c2ccccc2)OCO3)cc(OC)c1OC` returned a TGI above 100 µM. The same measure, in the same setting: in the case of `O=C1[C@H](O)[C@@H]2CCC[C@@]23CCCN13` it was above 100 µM; in that of `Cn1c(=O)oc2cc(C(=S)N3CCCCC3)ccc21`, above 100 µM; in that of `CC1(C)OC2OC(C(=O)c3ccccc3)C3OC(C)(C)OC3C2O1` (configuration not stated), above 100 µM. The same measure, in the same setting: the value for `CCOC(=O)C1=C(O)c2ccc(OC)cc2C(=O)C1=O` was above 100 µM; that for `O=C1NC2OC(CO)C(O)C(O)C2O1` (configuration not stated) was above 100 µM.

In turn, `N#CC(C#N)C1CN2CCC1CC2` (configuration not stated) had a TGI above 100 µM. For `CCOC(=O)Nc1cc(-c2ccc(C)c(NS(C)(=O)=O)c2)nn2c(C)nnc12`, the GI50 was 2.33 µM and the TGI amounted to 20.4 µM. Take `COc1ccc(N2C(=O)C3C=CC(n4[nH]c(=O)n(Cc5ccccc5)c4=O)CC3C2=O)cc1` (configuration not stated): the TGI was above 100 µM.

In turn, `C=C(C)C1CCC2(C(=O)O)CCC3(C)C(CCC4C5(C)CCC(O)C(C)(C)C5CCC43C)C12` (configuration not stated) had a TGI of 27.1 µM. On to `CCCCCCn1c2c(c3c(O)cccc31)C(=O)c1ccccc1-2`, for which the GI50 is 18 µM and the TGI turned out to be 33.9 µM. `CC/C(=C(/CC)c1ccc(O)cc1)c1ccc(O)cc1`: the GI50 is 9.62 µM and the TGI turned out to be 23.8 µM. `COc1c(OC)c(OC)c(-c2cc(=O)c3c(OC)c(OC)c(OC)c(OC)c3o2)c(OC)c1OC` gave a TGI above 100 µM.

The compound `O=C1CCCCCCCCCCOC(=O)CCCCCCCCCCO1` had a TGI above 100 µM. On the same count and under the same terms, in the case of `O=C1CCc2ccccc2O1` it was above 100 µM; in that of `CCOC(=O)c1cc([N+](=O)[O-])cc([N+](=O)[O-])c1Sc1ncnc2nc[nH]c12`, 18.8 µM. With `[Au+].c1c[n-]cn1.c1ccc([PH+](c2ccccc2)c2ccccc2)cc1`, the GI50 is 14.1 µM and the TGI came to 30.4 µM. Take `CCOC(=O)CP(=S)(S)c1ccccc1` (configuration not stated): the TGI was above 100 µM. The compound `Cc1cc(N)c2cc(NC(=O)Nc3ccc4nc(C)cc(N)c4c3)ccc2n1` registered a TGI above 100 µM.

In turn, `O=P(Nc1cccc(Cl)c1)(Oc1ccccc1)N(CCCl)CCCl` (configuration not stated) had a TGI of 29.2 µM.

Regarding `COC(=O)C1=C(C)NC2=C(C(=O)c3ccccc32)C1c1cn[nH]c1-c1ccccc1` (configuration not stated), the TGI is above 100 µM. Same read-out and setting: in the case of `CCOC(=O)[C@@]12NN=N[C@@H]1[C@H]1CO[C@H](c3ccccc3)N1C2=O` it was 30.7 µM. The same measure, in the same setting: in the case of `O=C1NC(Cc2ccccc2)C(=O)N2CCCC12` (configuration not stated) it was above 100 µM. For the compound `CCN(CC)CCNC(=O)C(Cl)=C1C(Cl)=C(Cl)C(Cl)=C1Cl`, the GI50 was 10.1 µM and the TGI is 23.1 µM. On the same counts, the results for `COc1ccc2c(c1)C(=O)c1c-2c(OCCN2CCCCC2)nc2ccc(OC)cc12` are 0.707 µM and 5.34 µM.

In turn, `O=C1C(c2c(O)[nH]c3ccc(I)cc23)=Nc2ccccc21` displayed a TGI of 19.8 µM. Still for that read-out and setting: the value for `COc1cc(/C=C/c2ccc(S(N)(=O)=O)cc2)cc(OC)c1` was 68.7 µM. For the compound `N/C(=N\C(N)=N\c1nc2ccccc2s1)c1ccnc(Br)c1`, the GI50 was 51.3 µM and the TGI was above 100 µM. Compound `O=C1c2c(F)c(F)c(F)c(F)c2SC2=Nc3cccc4cccc(c34)N12` displayed a TGI of 27.5 µM. Still for that read-out and setting: in the case of `O=c1cc(NNc2cccc(F)c2)[nH]c(=S)[nH]1` it was above 100 µM. Consider `COC1=CC(c2ccc[nH]2)=N/C1=C\c1[nH]c(C)c(C)c1CCC(=O)OCc1ccccc1`, for which the GI50 was 1.95 µM and the TGI is 16.5 µM.

In turn, `CC(C)=Cc1cc(C(=O)NCCNC(=O)c2cc(C=C(C)C)nc(NC#N)n2)nc(NC#N)n1` yielded a TGI above 100 µM. On the same count and under the same terms, the value for `C=C(C)[C@@H]1CCC2=C(CC[C@]3(C)[C@@H]([C@@H](CCC=C(C)C)C(=O)O)[C@H](O)C[C@@]23C)[C@@]1(C)CCC(=O)O` was above 100 µM. The same measure, in the same setting: the value for `Brc1ccc(C[N+]23CN4CN(CN(C4)C2)C3)cc1` was above 100 µM; that for `COc1ccc(C=NCCCN=Cc2ccc(OC)cc2O)c(O)c1` was above 100 µM. As for `COc1ccc(C2NC3=C(CCCC3)N2)cc1`, the TGI was above 100 µM. Still for that read-out and setting: in the case of `COc1ccc(OC)c(-c2cc(=O)c3cc4c(cc3[nH]2)OCO4)c1` it was above 100 µM. As for `Cn1c(=O)c(-c2c(Cl)cccc2Cl)cc2cnc(Nc3ccc(I)cc3)nc21`, the GI50 is 7.14 µM and the TGI stood at 70.1 µM. In turn, `Nc1nc(-c2ccc3ccccc3c2)cc(-c2cc(-c3ccc4ccccc4c3)nc(N)n2)n1` returned a TGI above 100 µM. Turning to `COC(=O)[C@@H](NC(=O)c1ccc(CNC(=O)/C(C)=C/c2ccccc2)cc1)C(C)C`, the TGI is above 100 µM. As for `O=C1Nc2c(ccc(Cl)c2Cl)/C1=C\c1cc(C(F)(F)F)cc(C(F)(F)F)c1`, the GI50 is 6.28 µM and the TGI amounted to 20.6 µM. `COc1ccc(Oc2nc3c(N)cc(C(F)(F)F)cc3nc2-c2ccccc2)cc1` came in with a TGI above 100 µM.

For `COc1cc(-c2ccc(=O)oc2C#Cc2ccccc2)cc(OC)c1OC`, the GI50 was above 100 µM and the TGI was above 100 µM.

On to `NCCN(CCN)/[N+]([O-])=N/O`, for which the TGI is above 100 µM. Same read-out and setting: in the case of `C[C@H]1CCC2C(CN3CCCCC3)C(=O)OC2[C@]2(C)C(=O)CC(N3CCCCC3)C12O` (some centres not stated) it was 27.5 µM; in that of `O=C(CBr)NCCc1c[nH]c2ccccc12`, 7.3 µM; in that of `O=Cc1cn(S(=O)(=O)c2ccccc2)c2ccccc12`, above 100 µM. `COc1cc2oc(-c3ccc(O)cc3)cc(=O)c2c(OC)c1O` had a TGI above 100 µM. Same read-out and setting: in the case of `Cc1ccc(Cc2n[nH]c(=O)n2N2C(=O)c3ccccc3C2=O)cc1` it was above 100 µM; in that of `Cc1cc(C)c(C2=NO[C@@H]3C(=O)N(c4ccc(Cc5ccc(N6C(=O)[C@H]7C(c8c(C)cc(C)cc8C)=NO[C@H]7C6=O)cc5)cc4)C(=O)[C@H]23)c(C)c1`, above 100 µM. With `O=[N+]([O-])c1cccc([I+]c2ccccc2)c1`, the GI50 is 45 µM and the TGI is above 100 µM. On the same counts, the results for `ClCc1ccc(-c2ccc(Cn3cnc4c(Cl)ncnc43)cc2)cc1` are 1.99 µM and 4.72 µM.

As to `C/C(CC(=O)Nc1ccc([N+](=O)[O-])cc1)=N\Nc1ccc([N+](=O)[O-])cc1[N+](=O)[O-]`, the TGI is above 100 µM.
